SMILES strings stand for the structures. Where “and” joins values, the source holds several entries; their conditions need not be identical. Equal values may be shown once.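 Exposure lasted 48 hours, with cells grown in 96-well plates and compounds tested at five concentrations. GI50 marks 50% less growth.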 Calls of active or inactive are those of the source. Cut-off read from the data, not from the text of the source: active = GI50 up to about 1.1 µM and inactive = higher. Bounds are passed on as bounds.

The test system of this test is NCI-H322M. As to the kind of experiment: inhibition of tumour cell growth, NCI panel, 48 h.
In the case of `CC1=CCC[C@H]2[C@](C)(CC3=CC(=O)C(SCC(C)C)=CC3=O)[C@@H](C)CC[C@]12C`, the GI50 was inactive: 17.3 µM.

For the compound `CCCCCCOc1ccc(NC2=C(Cl)C(=O)c3cccnc3C2=O)cc1`, the GI50 was inactive: 1.65 µM.

Take `O=[N+]([O-])c1ccc2c3ccccc3[s+]([O-])c2c1` (stereo not given): the GI50 is inactive: > 100 µM.

Regarding `CC1=C/C(=C(/c2ccc(O)c(C)c2)c2ccccc2C(=O)O)C=CC1=O`, the GI50 is inactive: 19.5 µM.

In the case of `O=C1/C(=C\c2ccc([N+](=O)[O-])cc2)CS(=O)(=O)C/C1=C/c1ccc([N+](=O)[O-])cc1`, the GI50 was inactive: 3 µM.

As for `Cc1cc2nc3[nH]c4c(Cl)cc(Cl)cc4c3nc2cc1C`, the GI50 is inactive: > 100 µM.

As for `O=C(NCCCNC(=O)c1ccc2c(O)c(O)ccc2c1)c1ccc2c(O)c(O)ccc2c1`, the GI50 is inactive: 43.1 µM.

Consider `Nn1c(CCCCCCCCc2nnc(COc3ccc(Cl)cc3)n2N)nnc1COc1ccc(Cl)cc1`, for which the GI50 is inactive: 95.3 µM.

In the case of `O=C1Sc2cc3ccccc3cc2C(=O)Sc2ccc(Br)cc21`, the GI50 is inactive: 15.7 µM.

Turning to `NNC(=O)CC(=O)Nc1ccc(Cl)cc1`, the GI50 is inactive: > 100 µM.

`COC(=O)NC(Cc1ccccc1)NC(C)=O` (stereo not given): the GI50 was inactive: > 100 µM.

On to `N#Cc1c(-c2ccccc2)nc(-c2ccccc2)sc1=S`, for which the GI50 is inactive: > 100 µM.

Turning to `C=CCO[C@]1(CC=C)C(=O)C(=O)OC1C1COC(C)(C)O1` (stereo not given in full), the GI50 was inactive: > 100 µM.

For the compound `C=CCC(C(=O)OC)C1(C(=O)OC)c2[nH]c3ccccc3c2CCN1Cc1ccccc1` (stereo not given), the GI50 was inactive: > 100 µM.

With `N#C/C(C(=S)Nc1ccccc1)=C(/N)N1CCCC1`, the GI50 was inactive: > 100 µM.

Consider `O=C(CCCC(=O)N1CC(CCl)c2ccc([N+](=O)[O-])cc21)N1CC(CCl)c2ccc([N+](=O)[O-])cc21` (stereo not given), for which the GI50 was inactive: > 100 µM.

Consider `CCOC(=O)C1(C(=O)OCC)[C@H](c2ccccc2)C2=NO[C@@H]3CCC[C@H]1[C@H]23`, for which the GI50 is inactive: > 100 µM.

Take `COC(=O)C1OC(O[C@H]2CC[C@]3(C)[C@H]4CC=C5[C@@H]6CC(C)(C)CC[C@]6(C(=O)OC6OCC(O)C(O)C6OC6OC(C)C(OC7OCC(O)C(OC8OCC(O)C(O)C8O)C7O)C(OC7OCC(O)C(O)C7O)C6O)CC[C@@]5(C)[C@]4(C)CC[C@H]3C2(C)C)C(O)C(OC2OCC(O)C(O)C2O)C1O` (stereo not given in full): the GI50 was inactive: 3.36 µM and inactive: 2.65 µM.

`O=S1(=O)c2cnccc2N=C(NCc2ccccc2)N1c1ccccc1`: the GI50 was inactive: > 100 µM.

As for `O=C(O)CCc1ccc2c(c1)C(=O)CC2`, the GI50 is inactive: > 100 µM.

In the case of `OC(c1cccnc1)C(F)(F)c1nc2ccccc2o1` (stereo not given), the GI50 was inactive: > 100 µM.

Regarding `CCOc1ccc(NC(=O)C(=O)CC(=O)c2sc(NNC(C)=O)nc2C)cc1`, the GI50 was inactive: > 100 µM.

Take `Cc1cc(=O)c2ccccc2n1CCCCCCCCCCn1c(C)cc(=O)c2ccccc21`: the GI50 was inactive: 15.3 µM.

As to `COc1cc(N(Cc2ccc3oc(=O)c(-c4ccccc4)nc3c2)Cc2ccc3oc(=O)c(-c4ccccc4)nc3c2)cc(OC)c1OC`, the GI50 is inactive: > 10 µM.

Consider `CCOC(=O)c1c(-c2ccc(Cl)cc2)c(C#N)c(=S)n(C2OC(COC(C)=O)C(OC(C)=O)C(OC(C)=O)C2OC(C)=O)c1C` (stereo not given), for which the GI50 is inactive: > 100 µM.

Regarding `CC(=O)NC1C(OCC(=O)NCCNc2ccc([N+](=O)[O-])c3[nH]c4ccccc4c(=O)c23)C(O)C(CO)OC1(C)OCc1ccccc1` (stereo not given), the GI50 was inactive: > 100 µM.

In the case of `ClC1=NSSC1(Cl)Cl`, the GI50 was inactive: > 100 µM.

Consider `O=c1[nH]c2ccccc2nc1CBr`, for which the GI50 is inactive: 20 µM.

In the case of `CNCC(SC)c1ccc(O)c(O)c1` (stereo not given), the GI50 was inactive: 61.5 µM.

On to `Cc1cnc2c(c1C)C(=O)c1ccccc1C2=O`, for which the GI50 is inactive: 61.4 µM.

Regarding `CC(C)(C)/N=C\N1CCC(C(c2ccccc2)c2ccccc2)CC1`, the GI50 is inactive: 85.1 µM.

Turning to `COc1cc(CNC(=O)CCCCCCCC/C=C/Br)ccc1O`, the GI50 is inactive: > 10 µM.

As for `Cc1cnc2ccc(C)c([N+](=O)[O-])c2c1NCCCN(C)C`, the GI50 was inactive: 36.1 µM.

As for `CCOc1ccc(Nc2nc(N)nc(N)c2N)cc1`, the GI50 is inactive: > 100 µM.

`CCCN1C(=O)C/C(=C\C(C)=O)Nc2ccccc21`: the GI50 is inactive: > 100 µM.

For the compound `CCC/C(=N\NC(=O)c1cc2ccccc2cc1O)C(CC)C(=O)CCC(=O)N(Cc1ccccc1)Cc1ccccc1` (stereo not given), the GI50 was inactive: 51.8 µM.

Regarding `CCN1CC2(CO)CCC(OC)C34C5CC6C(OC)CC(O)(C5C6OC)C(O)(C(OC)C23)C14` (stereo not given), the GI50 was inactive: > 375 µM.

With `Cc1ccnc(Nc2[nH]c(C(=O)c3ccc(Cl)cc3)c(N)c2C(=S)Nc2ccccc2)c1`, the GI50 was inactive: 12.9 µM.

Turning to `COc1ccc2c(c1)c1c(n2CCN(C)C)-c2cccc(OC)c2CC1`, the GI50 is inactive: 13.6 µM.

On to `OCc1c2c(cc3c1CC1(C3)Cc3cc4c(c(CO)c3C1)CCC4)CCC2`, for which the GI50 was inactive: 21.5 µM.

Consider `O=C1CCC(=O)N1CNc1ccc2c(c1)S(=O)(=O)c1ccccc1O2`, for which the GI50 is inactive: > 100 µM.

Take `COc1ccc2n[se]nc2c1`: the GI50 was inactive: 41 µM.

On to `COc1cccc2c3ccccc3c3nc[nH]c3c12`, for which the GI50 is inactive: > 64.1 µM.

As to `COC(=O)C1=C(OC(=O)/C(=C/c2ccccc2)c2ccc(OC)cc2)C(C(=O)OC)[C@@]2(O)[C@@H](C(=O)OC)[C@H](C)C[C@@H]1[C@@H]2C(=O)OC` (stereo not given in full), the GI50 was inactive: > 100 µM.

Turning to `N#C/C(=C\c1ccccc1F)C(=O)c1ccccc1`, the GI50 was inactive: > 100 µM.

For `O=C(O)c1nc2cc(C(F)(F)F)ccc2nc1Nc1ccc(F)cc1`, the GI50 was inactive: 29.2 µM.

Regarding `N#CC(C(=O)Nc1ccccc1)C1=C(Cl)C(=O)c2ccccc2C1=O` (stereo not given), the GI50 was inactive: 14.1 µM.

For `CCOC(=O)Nc1c(C#N)[n+]([O-])c2cc(Cl)c(Cl)cc2[n+]1[O-]`, the GI50 is inactive: 22.7 µM.

Consider `COC(=O)CCC1=C(CC(=O)OC)C(C)(OC)N/C1=N/C(=O)OCc1ccccc1` (stereo not given), for which the GI50 was inactive: > 100 µM.

With `COc1ccccc1NC(=S)NNC(=O)c1cc(-c2ccccc2)nc2ccccc12`, the GI50 was inactive: 8.55 µM.

`Cc1csc2nc(-c3ccncc3)cn12`: the GI50 was inactive: > 100 µM.

Take `CC(=O)Nc1ccc(NC(=O)c2c(Cl)c(Cl)c(Cl)c(Cl)c2-c2nc3ccccc3[nH]2)cc1`: the GI50 is inactive: 39.1 µM.

In the case of `CN(CCCCN1CCCC1)CCCCN(C)C(=O)Cc1ccc(Cl)c(Cl)c1`, the GI50 is inactive: 16.1 µM.

`Brc1cc2c(cc1Br)CN(c1ccccc1)C2`: the GI50 is inactive: > 100 µM.

Regarding `COc1cc(OCc2ccccc2)c2c(CCC(=O)O)cc(=O)oc2c1.COc1cc(OCc2ccccc2)cc2oc(=O)cc(CCC(=O)O)c12`, the GI50 is inactive: 35 µM.

On to `N#CC1([N+](=O)[O-])C=C1c1ccccc1` (stereo not given), for which the GI50 was inactive: > 100 µM.

On to `O=[N+]([O-])c1ccc(C[P+](c2ccccc2)(c2ccccc2)c2ccccc2)cc1`, for which the GI50 was inactive: > 100 µM.

Consider `CC1(C)CN=C(c2ccc3ccccc3c2O)N1`, for which the GI50 was inactive: > 100 µM.

Consider `NC(=O)CSc1c2cc(O)ccc2nc2ccc(O)cc12`, for which the GI50 is inactive: > 10 µM.

For `COc1cccc(C2=NC(C(C)C)CO2)c1OC` (stereo not given), the GI50 is inactive: > 100 µM.

For the compound `CCOC(=O)CNC1=Nc2ccccc2C(=O)N2CSCC12` (stereo not given), the GI50 was inactive: > 100 µM.

For `OCC1OC(c2cccc3cc(O)c(O)cc23)CC1O` (stereo not given), the GI50 is inactive: > 100 µM.

In the case of `O=Cc1ccccc1COC(=O)c1cc(C(=O)OCc2ccccc2C=O)c(C(=O)OCc2ccccc2C=O)cc1C(=O)OCc1ccccc1C=O`, the GI50 is inactive: > 100 µM.

For `COC(=O)C(=O)C(C(=O)C(=O)Nc1cccc([N+](=O)[O-])c1)c1nc2ccc(Cl)cc2nc1O` (stereo not given), the GI50 is inactive: > 100 µM.

For `COc1ccccc1C1(C)SCc2nc3ccccc3n21` (stereo not given), the GI50 was inactive: > 10 µM.

As for `O=c1[nH]/c(=C/c2ccc(OCc3ccccc3)cn2)c(=O)[nH]/c1=C/c1ccc(O)cc1`, the GI50 is active: 1.07 µM.

Turning to `COC(=O)C12CCC(C(F)(F)C1=O)C2(C)C` (stereo not given), the GI50 is inactive: > 100 µM.

On to `Cc1cc(C)nc(NS(=O)(=O)c2ccc(NC(=O)c3cc([N+](=O)[O-])cc([N+](=O)[O-])c3)cc2)n1`, for which the GI50 was inactive: 81.3 µM.

Turning to `O=C1C2=C(c3ccccc31)C(c1ccc(F)cc1)N1C(=O)CCSC1=N2` (stereo not given), the GI50 is inactive: > 100 µM.

As for `O=C(O)CSC(NC(=O)C(C(F)(F)F)C(F)(F)F)(C(F)(F)F)C(F)(F)F`, the GI50 is inactive: > 100 µM.

As to `Cc1ccccc1NC(=O)C(=O)CC(=O)c1sc(Nc2ccccc2[N+](=O)[O-])nc1C`, the GI50 is inactive: 41.5 µM.

For `CCOC(=O)COc1ccc(/C=C/C(=O)c2ccc(OC)cc2)cc1`, the GI50 was inactive: 46.9 µM.

`CC(=O)O[C@H]1CC[C@H]2[C@@H]3CCC4=CC(=O)C=C[C@]4(O)[C@H]3CC[C@]12C`: the GI50 was inactive: > 68.4 µM.

Regarding `N#Cc1ccc([N+](=O)[O-])cc1NC(N)=S`, the GI50 is inactive: > 100 µM.

With `O=C(O)C1=C/C(=C(/c2ccccc2)c2cc(C(=O)O)c(O)c3ccccc23)c2ccccc2C1=O`, the GI50 is inactive: > 100 µM.

`COCCOC(C)C(=O)C(O)S(=O)(=O)O` (stereo not given): the GI50 was inactive: > 100 µM.

Regarding `O=C(O)Cn1ccc(=O)c2cc([N+](=O)[O-])ccc21`, the GI50 is inactive: > 100 µM.

Regarding `O=[N+]([O-])c1cc2oc(CSc3ccccc3)nc2cc1Cl`, the GI50 was inactive: 36.9 µM.

In the case of `CC(=O)O[C@H]1C(=O)[C@@]2(C)C(C(OC(=O)c3ccccc3)[C@]3(O)C[C@H](OC(=O)C(OC(=O)CCCC(=O)NCCCN(C)C)C(NC(=O)c4ccccc4)c4ccccc4)C(C)=C1C3(C)C)C1(OC(C)=O)COC1C[C@@H]2O` (stereo not given in full), the GI50 was active: 0.0115 µM.

Turning to `O=C1Nc2ccc(Br)cc2/C1=N/NC(=S)Nc1ccc(F)cc1`, the GI50 is inactive: 10.8 µM.

The values are drawn from ChEMBL document CHEMBL1201862, “PubChem BioAssay data set” (2004).
